Measurements taken from patent US20130184251A1, “HETEROAROMATIC AND AROMATIC PIPERAZINYL AZETIDINYL AMIDES AS MONOACYLGLYCEROL LIPASE INHIBITORS” (Janssen Pharmaceutica, NV, priority 2009, published 2013).
Several values for one entry are separate records, joined by “and”; a condition that tells them apart may be missing. Identical values can stand only once.

Experiments:
[1] = target: T1, purified mutant MGL (mut-MGLL 11-313 L179S L186S) (Homo sapiens, UniProt Q99685, L169S/L176S); assay: biochemical; conditions: Ex. 3 (mutant) IC50, mutant MGL (mut-MGLL 11-313 L179S L186S)
T1 sequence (Q99685 1-303 L169S/L176S): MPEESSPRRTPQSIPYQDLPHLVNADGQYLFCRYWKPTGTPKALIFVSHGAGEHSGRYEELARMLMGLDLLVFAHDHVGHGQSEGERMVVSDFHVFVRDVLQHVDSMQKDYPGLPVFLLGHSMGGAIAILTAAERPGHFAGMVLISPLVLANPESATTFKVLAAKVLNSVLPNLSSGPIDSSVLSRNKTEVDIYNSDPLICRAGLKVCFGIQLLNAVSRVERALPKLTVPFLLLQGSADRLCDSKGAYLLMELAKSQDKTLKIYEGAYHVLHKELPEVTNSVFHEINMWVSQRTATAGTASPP

[2] = target: T1, purified mutant MGL (mut-MGLL 11-313 L179S L186S); assay: biochemical; conditions: Ex. 4 Kd, ThermoFluor

IC50 [1] | Kd [2] | SMILES
761 nM | 3230 nM | O=C(c1ccc(-n2ccnc2)cc1)N1CC(N2CCN(c3ncccn3)CC2)C1 [compound 71, 2-[4-(1-{[4-(1H-Imidazol-1-yl)phenyl]carbonyl}azetidin-3-yl)piperazin-1-yl]pyrimidine]
10800 nM | 7140 nM | O=C(C1CCc2ccccc2C1)N1CC(N2CCN(c3ccccn3)CC2)C1 (stereo not drawn) [compound 125, 1-Pyridin-2-yl-4-[1-(1,2,3,4-tetrahydronaphth-2-ylcarbonyl)azetidin-3-yl]piperazine]
3080 nM | 2500 nM | O=C(c1ccc2[nH]ccc2c1)N1CC(N2CCN(c3ccccn3)CC2)C1 [compound 121, 5-{[3-(4-Pyridin-2-ylpiperazin-1-yl)azetidin-1-yl]carbonyl}-1H-indole]
4660 nM | 6250 nM | CSc1ccccc1N1CCN(C2CN(C(=O)c3ccc(-c4ccccc4)cc3)C2)CC1 [compound 91, 1-[1-(Biphenyl-4-ylcarbonyl)azetidin-3-yl]-4-[2-(methylsulfanyl)phenyl]piperazine]
12 nM | 4 nM | O=C(c1ccc(-c2ccc(Cl)c(Cl)c2)cc1)N1CC(N2CCN(c3ncccn3)CC2)C1 [compound 11, 2-(4-{1-[(3′,4′-Dichlorobiphenyl-4-yl)carbonyl]azetidin-3-yl}piperazin-1-yl)pyrimidine]
179 nM | 284 nM | Cc1cc(C(=O)N2CC(N3CCN(c4ncccn4)CC3)C2)ccc1I [compound 50, 2-(4-{1-[(4-Iodo-3-methylphenyl)carbonyl]azetidin-3-yl}piperazin-1-yl)pyrimidine]
34 nM | 55 nM | O=C(Nc1ccc(C(=O)N2CC(N3CCN(c4ccccn4)CC3)C2)cc1)C1CCCCC1 [compound 27, N-(4-{[3-(4-Pyridin-2-ylpiperazin-1-yl)azetidin-1-yl]carbonyl}phenyl)cyclohexanecarboxamide]
3100 nM and 5300 nM | 2380 nM and 10200 nM | O=C(c1ccccc1)c1cccc(C(=O)N2CC(N3CCN(c4ccccn4)CC3)C2)c1 [compound 86, Phenyl(3-{[3-(4-pyridin-2-ylpiperazin-1-yl)azetidin-1-yl]carbonyl}phenyl)methanone]
9 nM | 18 nM | O=C(c1ccc(-c2ccccc2Cl)cc1)N1CC(N2CCN(c3ncccn3)CC2)C1 [compound 8, 2-(4-{1-[(2′-Chlorobiphenyl-4-yl)carbonyl]azetidin-3-yl}piperazin-1-yl)pyrimidine]
27 nM | 36 nM | N#Cc1cccnc1N1CCN(C2CN(C(=O)c3ccc(-c4ccccc4)cc3)C2)CC1 [compound 23, 2-(4-[1-(Biphenyl-4-ylcarbonyl)azetidin-3-yl]piperazin-1-yl}pyridine-3-carbonitrile]
104 nM | 118 nM | O=C(c1ccc(-c2ccccc2)cc1)N1CC(N2CCN(c3ccccn3)CC2)C1 [compound 42, 1-[1-(Biphenyl-4-ylcarbonyl)azetidin-3-yl]-4-pyridin-2-ylpiperazine]
< 5 nM | 3 nM | O=C(c1ccc(N2CCCC2)cc1)N1CC(N2CCN(c3ncccn3)CC2)C1 [Compound #2, 2-(4-{1-[(4-Pyrrolidin-1-ylphenyl)carbonyl]azetidin-3-yl}piperazin-1-yl)pyrimidine]
55 nM | 84 nM | O=C(c1ccc(C2CCCCC2)cc1)N1CC(N2CCN(c3nnc(C(F)(F)F)s3)CC2)C1 [compound 34, 1-{1-[(4-Cyclohexylphenyl)carbonyl]azetidin-3-yl}-4-[5-(trifluoromethyl)-1,3,4-thiadiazol-2-yl]piperazine]
35 nM | 83 nM | CN(C)c1ccc(C(=O)N2CC(N3CCN(c4ncccn4)CC3)C2)cc1 [compound 28, N,N-Dimethyl-4-{[3-(4-pyrimidin-2-ylpiperazin-1-yl)azetidin-1-yl]carbonyl}aniline]
9 nM | 8 nM | O=C(c1ccc(-c2ccc(F)cc2)cc1)N1CC(N2CCN(c3ncccn3)CC2)C1 [compound 9, 2-(4-{1-[(4′-Fluorobiphenyl-4-yl)carbonyl]azetidin-3-yl}piperazin-1-yl)pyrimidine]
< 13 nM | 14 nM | O=C(c1ccc(OCc2ccccc2)cc1)N1CC(N2CCN(c3ncccn3)CC2)C1 [compound 111, 2-[4-(1-{[4-(Benzyloxy)phenyl]carbonyl}azetidin-3-yl)piperazin-1-yl]pyrimidine]

IC50 [1] | Kd [2] | SMILES
3160 nM | 8330 nM | Cc1ccc(-c2ccc(C(=O)N3CC(N4CCN(c5ccccn5)CC4)C3)o2)cc1 [compound 84, 1-(1-{[5-(4-Methylphenyl)furan-2-yl]carbonyl}azetidin-3-yl)-4-pyridin-2-ylpiperazine]
56 nM | 31 nM | O=C(c1ccc(-c2ccccc2)cc1)N1CC(N2CCN(c3nccs3)CC2)C1 [compound 36, 1-[1-(Biphenyl-4-ylcarbonyl)azetidin-3-yl]-4-(1,3-thiazol-2-yl)piperazine]
19 nM | 21 nM | CC(C)n1c(C(F)(F)F)nc2cc(C(=O)N3CC(N4CCN(c5ncccn5)CC4)C3)ccc21 [compound 16, 1-(1-Methylethyl)-5-{[3-(4-pyrimidin-2-ylpiperazin-1-yl)azetidin-1-yl]carbonyl}-2-(trifluoromethyl)-1H-benzimidazole]
84 nM | 395 nM | O=C(/C=C/c1ccc(SC(F)(F)F)cc1)N1CC(N2CCN(c3ccccn3)CC2)C1 [compound 41, 1-Pyridin-2-yl-4-{1-[(2E)-3-(4-[(trifluoromethyl)sulfanyl]phenyl}prop-2-enoyl]azetidin-3-yl}piperazine]
735 nM | 1390 nM | O=C(c1ccc(-c2ccccc2)cc1)N1CC([N+]2([O-])CCN(c3ncccn3)CC2)C1 [compound 69, 2-(4-[1-(Biphenyl-4-ylcarbonyl)azetidin-3-yl]-4-oxidopiperazin-1-yl}pyrimidine]
1370 nM | 3030 nM | O=C(c1ccc(C2CCCCC2)cc1)N1CC(N2CCN(c3ccc(Br)cn3)CC2)C1 [compound 77, 1-(5-Bromopyridin-2-yl)-4-{1-[(4-cyclohexylphenyl)carbonyl]azetidin-3-yl}piperazine]
346 nM | 1080 nM | O=C(c1ccccc1OCc1ccccc1)N1CC(N2CCN(c3ccccn3)CC2)C1 [compound 58, 1-(1-{[2-(Benzyloxy)phenyl]carbonyl}azetidin-3-yl)-4-pyridin-2-ylpiperazine]
271 nM | 364 nM | CC(C)(C)c1ccc(CCC(=O)N2CC(N3CCN(c4ccccn4)CC3)C2)cc1 [compound 55, 1-{1-[3-(4-tert-Butylphenyl)propanoyl]azetidin-3-yl}-4-pyridin-2-ylpiperazine]
26 nM | 17 nM | O=C(c1ccc(NCc2ccc(I)o2)cc1)N1CC(N2CCN(c3ncccn3)CC2)C1 [Compound #22, N-[(5-Iodofuran-2-yl)methyl]-4-{[3-(4-pyrimidin-2-ylpiperazin-1-yl)azetidin-1-yl]carbonyl} aniline]
10800 nM | > 31200 nM | O=C(c1ccc2c(c1)CCCN2c1cccc(C(F)(F)F)c1)N1CC(N2CCN(c3cccc(C(F)(F)F)c3)CC2)C1 [compound 135, 1-[3-(Trifluoromethyl)phenyl]-6-[(3-(4-[3-(trifluoromethyl)phenyl]piperazin-1-yl}azetidin-1-yl)carbonyl]-1,2,3,4-tetrahydroquinoline]
5400 nM | 4000 nM | O=C(c1ccc([N+](=O)[O-])cc1)N1CC(N2CCN(c3ncccn3)CC2)C1 [compound 94, 2-(4-{1-[(4-Nitrophenyl)carbonyl]azetidin-3-yl}piperazin-1-yl)pyrimidine]
518 nM | 2500 nM | O=C(/C=C/c1ccc2c(c1)CCN2C1CCCCC1)N1CC(N2CCN(c3ccccn3)CC2)C1 [compound 63, 1-Cyclohexyl-5-{(1E)-3-oxo-3-[3-(4-pyridin-2-ylpiperazin-1-yl)azetidin-1-yl]prop-1-en-1-yl}-2,3-dihydro-1H-indole]
6520 nM | 6670 nM | O=C(c1ccc(-c2ccccc2)cc1)N1CC(N2CCN(c3ncccc3C(F)(F)F)CC2)C1 [compound 101, 1-[1-(Biphenyl-4-ylcarbonyl)azetidin-3-yl]-4-[3-(trifluoromethyl)pyridin-2-yl]piperazine]
> 5000 nM | 4550 nM | COc1ccc(-c2ccc(C(=O)N3CC(N4CCN(c5ccccn5)CC4)C3)o2)cc1 [compound 92, 1-(1-{[5-(4-Methoxyphenyl)furan-2-yl]carbonyl}azetidin-3-yl)-4-pyridin-2-ylpiperazine]
24 nM | 120 nM | O=C(c1ccc(OCc2ccccc2)cc1)N1CC(N2CCN(c3ccccn3)CC2)C1 [compound 112, 1-(1-{[4-(Benzyloxy)phenyl]carbonyl}azetidin-3-yl)-4-pyridin-2-ylpiperazine]
6100 nM | 13000 nM | O=C(c1ccc(-c2ccccc2)o1)N1CC(N2CCN(c3ccccn3)CC2)C1 [compound 99, 1-{1-[(5-Phenylfuran-2-yl)carbonyl]azetidin-3-yl}-4-pyridin-2-ylpiperazine]

SMILES | IC50 [1] | Kd [2]
Cc1c(C(=O)N2CC(N3CCN(c4ccccn4)CC3)C2)nn(-c2ccc(Cl)cc2Cl)c1-c1ccc(Cl)cc1 [compound 39, 1-(1-{[5-(4-Chlorophenyl)-1-(2,4-dichlorophenyl)-4-methyl-1H-pyrazol-3-yl]carbonyl}azetidin-3-yl)-4-pyridin-2-ylpiperazine] | 75 nM | 182 nM
